In PubChem BioAssay AID463173 (ICCB-Longwood Screening Facility, Harvard Medical School, 2010):
The campaign covered roughly 52,000 compounds. About 1,700 (3.3%) were called active. Rule as the data show it: active = survival mostly below about 52% (no sharp cut-off); inactive = mostly above about 56%. The list shows a part of the results.

Each molecule was assayed on Wild type (assay: S. aureus survival, RN4220 and DeltatarO strains – OD600, teichoic acid synthesis inhibitors, primary screen (AID 463173)). Settings: S. aureus RN4220 wild type/DeltatarO growth, OD600, 18 h, stronger effect = lower value, screened at 18.75 µg/mL (by protocol).
`CCCCOc1cccc(C(=O)N(Cc2ccc(N(C)C)cc2)C2CCS(=O)(=O)C2)c1` (stereo unspecified) was tested, and the survival was inactive: 83%. In the case of `Cc1cc(-c2nc3ncccc3o2)ccc1NC(=O)c1ccccc1Br`, the survival was inactive: 50%. In the case of `O=C(Cn1cnc(S(=O)(=O)N2CCCC2)c1)Nc1cccc(Br)c1`, the survival was inactive: 73%. For `NC(=O)c1nsc(C(=O)N(CC(=O)NCc2ccc3c(c2)OCO3)C2CCCCC2)c1N`, the survival was inactive: 106%. For `O=C(COc1ccc(F)cc1)NCC(c1ccc(Cl)cc1)N1CCCCC1` (stereo unspecified), the survival was inactive: 111%. With `Cc1ccc(CCNC(=O)CCCn2c(=O)c3ccccc3n(Cc3ccccc3C)c2=O)cc1` the survival was inactive: 94%. With `CC(=O)N1c2ccc(S(=O)(=O)N3CCCCCC3)cc2CC1C(=O)NCc1ccccc1C` (stereo unspecified) the survival was inactive: 67%. `COc1cc(OC)c(-c2cc(C(=O)NCc3ccc(F)cc3)c3c(-c4ccccc4)[nH]nc3n2)cc1OC` was tested, and the survival was inactive: 120%. With `COc1ccc(CCNC(=O)Cn2c(=O)n(-c3ccccc3)c(=O)c3c(C)c(C)sc32)cc1OC` the survival was inactive: 97%. For `O=C(Nc1ccc2c(c1)CCCN2C(=O)c1cccs1)c1ccccc1`, the survival was inactive: 113%. `O=C(Cn1c(=O)n(Cc2ccccc2)c(=O)c2sc3ccccc3c21)Nc1ccccc1F` was tested, and the survival was inactive: 104%. `O=C(NC1CCCc2ccccc21)c1ccc2c(c1)sc1nc(-c3ccccc3)cn12` (stereo unspecified) was tested, and the survival was inactive: 88%. In the case of `CC(C)C1N=C2c3ccccc3N=C(SCC(=O)NCc3ccc(Cl)cc3)N2C1=O` (stereo unspecified), the survival was inactive: 83%. With `COc1ccc(-n2nc(C(=O)N3CCN(c4ccccc4OC)CC3)c3c4ccccc4n(C)c3c2=O)cc1Cl` the survival was inactive: 126%. `COc1ccccc1CNC(=O)CCCN1C(=O)CSc2c1c(C)nn2-c1ccccc1` was tested, and the survival was inactive: 91%. With `CC(=O)N1CCOc2cc(S(=O)(=O)NCc3ccc(F)cc3)c(C)cc21` the survival was inactive: 83%. In the case of `CCOc1ccccc1NC(=O)C1CCN(S(=O)(=O)c2cccs2)CC1`, the survival was inactive: 93%. With `CC(CNC(=O)CCc1cn(Cc2ccccc2Cl)c2ccccc12)c1ccccc1` (stereo unspecified) the survival was inactive: 83%. With `COc1cccc(Oc2nc(C)nc3c2oc2ccccc23)c1` the survival was inactive: 19%. `Cc1c(C(=O)NCc2cccc(Cl)c2)sc2nc[nH]c(=O)c12` was tested, and the survival was inactive: 81%. For `Cc1nc(N2CCCC2)c2c(C(=O)Nc3cccc(Cl)c3)c(C)oc2n1`, the survival was active: -3%. `CCCS(=O)(=O)c1nc(S(=O)(=O)c2ccc(C)cc2)c(NCc2ccccc2Cl)s1` was tested, and the survival was inactive: 128%. `CCOc1ccc(NC(=O)Cn2ccn3nc(-c4ccc(OC)c(OC)c4)cc3c2=O)cc1` was tested, and the survival was inactive: 124%. With `Cc1cc(C)cc(NC(=O)Nc2ccc3nc(N4CCN(C)CC4)cc(C)c3c2)c1` the survival was inactive: 128%. With `CC1(C)CC(=O)c2cc(C#N)c(=O)n(-c3ccc(Cl)cc3)c2C1` the survival was inactive: 64%. For `CCCOc1nc(N)c(C#N)c(-c2ccccc2F)c1C#N`, the survival was inactive: 114%. With `CCc1ccc(NC(=O)c2ccc(F)c(S(=O)(=O)N3CCN(c4ccc(OC)cc4)CC3)c2)cc1` the survival was inactive: 64%. In the case of `Cc1ccsc1CN(C(=O)c1ccc(OCC(C)C)cc1)C1CCS(=O)(=O)C1` (stereo unspecified), the survival was inactive: 85%. In the case of `COc1ccc(NC(=O)Cn2cc(C(=O)c3ccccc3)c(=O)c3cc(OC)ccc32)c(OC)c1`, the survival was inactive: 89%. In the case of `O=C(O)CCC(=O)Nc1sc2c(c1C(=O)Nc1ccccc1)CCCCC2`, the survival was inactive: 100%. `CSc1ccc(NC(=O)N2C3CCC2CC(O)(c2cccnc2)C3)cc1` (stereo unspecified) was tested, and the survival was inactive: 111%. For `CCOC(=O)c1cccc(NS(=O)(=O)c2cc(-c3cnc(C4CC4)o3)ccc2C)c1`, the survival was inactive: 97%. For `Cc1ccc2oc(-c3cccc(NC(=O)Cc4ccc(Cl)cc4)c3)nc2c1`, the survival was inactive: 74%. In the case of `CCOC(=O)c1c(S(=O)(=O)N2CCCC(C(=O)Nc3ccc(C)cn3)C2)c(C)n(C)c1C` (stereo unspecified), the survival was inactive: 59%. With `Cc1ccc(-n2c3nc(=O)[nH]c(=O)c-3cc3c(C)nn(-c4ccccc4)c32)cc1C` the survival was inactive: 116%. In the case of `Cc1ccc(Sc2c(C)nn(C(=O)c3ccc(Cl)cc3)c2C)cc1`, the survival was active: 2%. With `Cc1c(C(=O)OC(C)C)sc(NC(=O)C2c3ccccc3Oc3ccccc32)c1C(=O)OC(C)C` the survival was inactive: 87%. For `NC(=O)N/N=C/c1ccc(-c2ccc(Cl)cc2)o1`, the survival was inactive: 106%. `Cc1cccc(NC(=O)CSc2nc3ccccc3nc2N2CCOCC2)c1C` was tested, and the survival was inactive: 65%. With `CC(C)c1n[nH]c(=S)n1C` the survival was inactive: 101%. `CCOC(=O)C1=C(C)NC(=O)NC1C1CC=CCC1` (stereo unspecified) was tested, and the survival was inactive: 116%. `CC(=O)ON1C(c2ccccc2)[N+]([O-])=C(c2ccccc2)C1(C)C` (stereo unspecified) was tested, and the survival was inactive: 115%. With `CCOc1ccc(CNS(=O)(=O)c2cc3c(cc2C)NC(=O)CO3)cc1` the survival was inactive: 79%. In the case of `CC(=O)c1ccc(N2CCN(C(=O)CCCCn3c(=O)[nH]c4ccsc4c3=O)CC2)cc1`, the survival was inactive: 86%. In the case of `COc1ccc(Cn2c(=O)c3cccnc3n(CC(=O)Nc3c(C)cc(C)cc3C)c2=O)cc1`, the survival was inactive: 85%. With `CCc1cnc2c(c1SCC(=O)c1ccc(Cl)cc1)c(=O)n(C)c(=O)n2C` the survival was inactive: 72%. With `CCOC(=O)C1=C(c2ccccc2)OC(N)=C(C#N)C1c1ccncc1` (stereo unspecified) the survival was inactive: 108%. `CCOC(=O)c1c(-c2ccc(OC)cc2)oc2ccc(OCc3ccc(Br)cc3)cc12` was tested, and the survival was inactive: 73%. With `CCSc1nnc(NC(=O)c2cc(=O)c3cc(C)c(C)cc3o2)s1` the survival was inactive: 84%. With `O=C(Nc1cccc(C(F)(F)F)c1)c1cc(-c2ccc3c(c2)OCCO3)on1` the survival was inactive: 111%. `Cc1ccc(N(CC(=O)Nc2ccc(Br)cc2)S(=O)(=O)c2cccs2)cc1` was tested, and the survival was inactive: 81%. For `CCc1ccccc1NC(=O)c1ccc2nc(C(C)C)oc2c1`, the survival was inactive: 75%. For `COc1ccc(S(=O)(=O)n2nc(C)c(S(=O)(=O)N3CCC(C)CC3)c2C)cc1OC`, the survival was inactive: 81%. With `Cc1ccccc1NC(=O)CC1COc2ccccc2O1` (stereo unspecified) the survival was inactive: 111%. In the case of `O=C(NCCc1ccc(F)cc1)C(=O)NCC(c1ccco1)S(=O)(=O)c1cccs1` (stereo unspecified), the survival was inactive: 53%. For `CC(C)CCNC(=O)CCC(=O)NNc1nc2ccccc2c2nc(-c3ccccc3)nn12`, the survival was inactive: 145%. `O=c1c(Cl)c(NCCO)ncn1-c1ccccc1` was tested, and the survival was inactive: 112%. For `COc1cc(OC)cc(C(=O)N2CC(=O)Nc3ccc(Cl)cc3C2c2ccccc2)c1` (stereo unspecified), the survival was inactive: 80%. In the case of `O=C(Nc1nnc2n1CCS2)c1ccccc1C(F)(F)F`, the survival was inactive: 92%. `O=C(Nc1ccc(Cl)c(C(F)(F)F)c1)C(Cc1ccccc1)NS(=O)(=O)c1ccc(Br)s1` (stereo unspecified) was tested, and the survival was inactive: 84%. `Brc1cccc(-c2cnn3c(-c4ccccc4)cc(-c4ccccc4)nc23)c1` was tested, and the survival was inactive: 71%. In the case of `COc1ccc(C2=C(C)C(N3CCC(C(=O)Nc4ccc(F)cc4C)CC3)=NS2(=O)=O)cc1`, the survival was inactive: 59%. `CCC(C)(C)n1nnnc1C(c1ccccc1OC)N1CCN(C(=O)c2ccco2)CC1` (stereo unspecified) was tested, and the survival was inactive: 105%. For `O=C1CC(N2CCCC2)C(=O)N1c1ccccc1` (stereo unspecified), the survival was inactive: 96%. In the case of `COc1cccc(C(=O)NCC(c2ccc3c(c2)OCO3)N2CCOCC2)c1` (stereo unspecified), the survival was inactive: 118%. With `CCOc1ccc(NC(=O)C(=O)NCc2ccco2)cc1` the survival was inactive: 76%. `CCN(CC)C(=O)CN1C(=O)/C(=C/c2ccccc2)SC1=S` was tested, and the survival was inactive: 117%. In the case of `O=C(NCc1ccccc1)C(=O)NCC(c1cccs1)S(=O)(=O)c1ccccc1` (stereo unspecified), the survival was inactive: 64%. `CSc1nc(C)c2cc(C)ccc2n1` was tested, and the survival was inactive: 119%. With `COc1ccc2cc3cc(C(=O)NCc4ccccc4OC)oc3nc2c1` the survival was inactive: 80%. With `Cc1ccc(N(Cc2cccs2)C(=O)c2ccccc2Cl)cc1` the survival was inactive: 88%. For `Cc1ccc(-c2nc3ncccc3o2)cc1NC(=O)c1ccc(-c2ccc(Cl)cc2)o1`, the survival was inactive: 73%. With `Cc1cccc(N2CCN(S(=O)(=O)c3csc(C(N)=O)c3)CC2)c1C` the survival was inactive: 81%. For `COc1ccc2cc(C#N)c(=S)[nH]c2c1`, the survival was inactive: 95%. With `Cc1cccc(NC(=O)CSc2nc(-c3ccco3)cc(C(F)(F)F)n2)c1C` the survival was inactive: 81%. `C#Cc1ccc(C#C)cc1` was tested, and the survival was inactive: 111%. `CCOC(=O)c1ccc(NC(=O)c2cc3sccc3n2Cc2ccc(Cl)cc2)cc1` was tested, and the survival was inactive: 87%. In the case of `CC1(NS(C)(=O)=O)CC=CC1`, the survival was inactive: 116%. In the case of `O=C(Nc1nnc2n1CCS2)c1ccc(F)cc1F`, the survival was inactive: 84%. In the case of `O=C(c1ccccc1Cl)N1CCCCC1CCN1CCCCC1` (stereo unspecified), the survival was inactive: 106%. In the case of `COc1ccc(C)cc1NC(=O)Cn1c(=O)n(Cc2nc(C)no2)c(=O)c2ccccc21`, the survival was inactive: 85%. For `COc1ccc(NC(=O)C(C)N(c2ccccc2)S(C)(=O)=O)cc1` (stereo unspecified), the survival was inactive: 71%. `COc1ccc(CCNC(=O)c2ccc(Cn3c(=O)c4ccccc4n(Cc4cccc(Cl)c4)c3=O)cc2)cc1OC` was tested, and the survival was inactive: 95%. In the case of `CCOc1ccccc1NC(=O)C(CC)Sc1nc2ccncc2[nH]1` (stereo unspecified), the survival was inactive: 120%. In the case of `O=C(Nc1ccc(C(F)(F)F)cc1)N1C2CCC1CC(O)(c1cccnc1)C2` (stereo unspecified), the survival was inactive: 73%. With `Cc1cccc(Nc2nc3nonc3nc2N/N=C\c2cccs2)c1C` the survival was inactive: 96%. With `Cc1nn2c(=O)cc(COC(=O)c3ccccc3NC(=O)C(C)Oc3ccccc3)nc2s1` (stereo unspecified) the survival was inactive: 74%. In the case of `CCOc1ccc(CN2CCc3nc(Nc4ccc5c(c4)OCCO5)ncc3C2)cc1`, the survival was inactive: 80%. `COc1ccc(NCc2cc3cc4c(cc3n(CC(=O)Nc3cc(C)ccc3C)c2=O)OCCO4)cc1` was tested, and the survival was inactive: 70%. For `CC(C)c1ccc(NS(=O)(=O)c2ccc3nc(-c4ccccc4)[nH]c3c2)cc1`, the survival was inactive: 63%. For `CC(Sc1nnc(-c2ccco2)n1-c1ccccc1)C(=O)NC(c1ccccc1)c1ccccc1` (stereo unspecified), the survival was inactive: 139%.
